# In all, about 310,000 compounds went through this assay and about 2,200 (0.71%) showed an effect of 50% or more. Effects have a minus sign here. The list shows a part of the results.
# Biological target: human ether-à-go-go-related gene (hERG) potassium channel (human, UniProt Q12809)
# Assay: primary screen, population patch clamp on CHO cells stably expressing hERG
# Chain of human ether-à-go-go-related gene (hERG) potassium channel (Q12809 whole entry, looked up): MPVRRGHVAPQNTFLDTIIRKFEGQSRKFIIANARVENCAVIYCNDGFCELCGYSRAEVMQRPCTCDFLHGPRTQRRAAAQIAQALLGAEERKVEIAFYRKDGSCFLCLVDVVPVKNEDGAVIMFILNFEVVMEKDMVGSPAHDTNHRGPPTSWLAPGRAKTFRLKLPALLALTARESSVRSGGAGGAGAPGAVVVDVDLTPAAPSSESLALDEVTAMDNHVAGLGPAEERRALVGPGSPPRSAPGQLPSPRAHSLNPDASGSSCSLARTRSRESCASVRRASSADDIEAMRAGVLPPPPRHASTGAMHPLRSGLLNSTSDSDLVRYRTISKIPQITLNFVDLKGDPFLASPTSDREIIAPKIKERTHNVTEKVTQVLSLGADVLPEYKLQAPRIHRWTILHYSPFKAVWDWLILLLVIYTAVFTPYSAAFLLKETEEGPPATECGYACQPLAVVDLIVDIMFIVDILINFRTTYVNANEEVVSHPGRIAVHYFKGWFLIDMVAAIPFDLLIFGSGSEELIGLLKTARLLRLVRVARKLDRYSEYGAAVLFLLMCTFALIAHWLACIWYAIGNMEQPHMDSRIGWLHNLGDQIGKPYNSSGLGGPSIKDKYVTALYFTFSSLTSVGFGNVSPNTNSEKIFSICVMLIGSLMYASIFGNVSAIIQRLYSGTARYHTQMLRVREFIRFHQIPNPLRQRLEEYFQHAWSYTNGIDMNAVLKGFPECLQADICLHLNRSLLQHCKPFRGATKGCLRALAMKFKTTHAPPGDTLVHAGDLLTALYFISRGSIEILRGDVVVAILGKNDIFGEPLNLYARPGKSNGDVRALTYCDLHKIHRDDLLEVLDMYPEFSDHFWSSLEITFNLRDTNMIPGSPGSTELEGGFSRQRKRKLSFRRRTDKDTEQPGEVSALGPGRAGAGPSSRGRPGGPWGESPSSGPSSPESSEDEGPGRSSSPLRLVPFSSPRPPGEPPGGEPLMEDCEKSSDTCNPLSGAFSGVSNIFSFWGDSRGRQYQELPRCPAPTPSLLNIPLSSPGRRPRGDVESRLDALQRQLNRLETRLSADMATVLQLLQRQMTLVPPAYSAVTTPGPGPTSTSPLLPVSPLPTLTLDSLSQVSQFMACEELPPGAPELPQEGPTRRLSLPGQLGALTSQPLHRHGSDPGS
row,SMILES,"hERG current change (%, negative = inhibition) at 1uM"
1,CN(c1cccc(NC(=O)c2ccc(Cl)c(S(=O)(=O)Nc3ccccc3)c2)c1)S(C)(=O)=O,-7.24%
2,O=C(N/C(=C/c1cccc([N+](=O)[O-])c1)C(=O)N1CCCCC1)c1cccs1,1.23%
3,CSc1ccccc1C(=O)Nc1nccs1,-5.6%
4,CCOC(=O)c1c(C)n(CCO)c2ccc(O)cc12,-1.23%
5,COc1ccc(NC(=S)N(CCCN2CCOCC2)Cc2ccccn2)cc1,0.885%
6,COc1ccc(-c2[nH]c(-c3ccc4c(c3)OCO4)nc2-c2ccccc2)cc1,0.88%
7,COc1ccc(S(=O)(=O)NCc2ccccn2)cc1NC(=O)c1ccccc1C,9.42%
8,CN1CCN(c2ccc(NC(=O)c3ccc(Cl)cc3)cn2)CC1,-13.5%
9,COc1ccccc1CNc1nc(C)c(C(C)=O)s1,12.8%
10,COc1ccccc1N1CCN(C(=O)CCSCc2ccccc2F)CC1,13.8%
11,Cc1ccc(S(=O)(=O)N2CCCC(C(=O)N(Cc3cccs3)C3CC3)C2)cc1 (centres unmarked),-0.286%
12,CS(=O)(=O)N1CCN(C(=O)c2ccccc2F)CC1,8.61%
13,Cc1nc(S(=O)(=O)Nc2ccccc2C(=O)NCC2CC2)cn1C,17.6%
14,O=C(c1cc2c(s1)CCCCCC2)N1CCC2(CC1)OCCO2,9.04%
15,COCCCN1C(=O)C(=O)/C(=C(/O)c2ccc(S(=O)(=O)N3CCOCC3)cc2)C1c1cccc(Cl)c1 (centres unmarked),10.7%
16,Cc1cccc(NC(=O)c2ccc([N+](=O)[O-])o2)n1,3.03%
17,COc1cc2c(cc1OC)C(c1ccccc1)NCC2 (centres unmarked),10.2%
18,CCC(C)Sc1nc2ccccc2n1CC(=O)O (centres unmarked),8.32%
19,O=C(NNc1c(Cl)cncc1Cl)c1cccs1,14.5%
20,COc1cccc(N2C(=O)C(c3ccccc3)=C(c3nc4ccccc4s3)C2NC(C)=O)c1 (centres unmarked),6.19%

row,SMILES,"hERG current change (%, negative = inhibition) at 1uM"
1,CCCOc1ccc(-c2c(C(=O)N/N=C/c3ccc(OC)cc3)nnn2-c2nonc2N)cc1,1.58%
2,CC(=O)c1sc(NC(=O)CN2C(=O)C3CC=CCC3C2=O)nc1-c1ccccc1 (centres unmarked),10.4%
3,CN(C(=O)COc1ncnc2sccc12)c1ccccc1,5.67%
4,O=C1c2ccccc2C(O)(c2ncc[nH]2)N1CCc1ccccc1 (centres unmarked),0.576%
5,Clc1ccc(C(Cn2ccnc2)OCc2c(Cl)cccc2Cl)c(Cl)c1 (centres unmarked),15.6%
6,Cc1ccc(OCC(=O)N2CCN(C(=O)c3cccs3)CC2)cc1,-6.29%
7,Cc1ccc(CCNC(=O)c2cc(S(=O)(=O)N3CCOCC3)cn2C)cc1,10.4%
8,Cc1ccc(/C=N/NC(=O)c2nnn(-c3nonc3N)c2CN(C)c2ccccc2)s1,11.2%
9,O=C(Nc1cccnc1)c1cc2cc(Br)ccc2o1,19.5%
10,O=c1[nH]nc(-c2ccccc2)c2ccccc12,1.65%
11,CCCSc1nc(C)cc(=O)[nH]1,16%
12,O=C(NNc1ccccc1)/C(=C\c1cccnc1)NC(=O)c1ccccc1,4.41%
13,O=C(COC(=O)/C=C/c1ccccc1Cl)NCc1ccco1,35.7%
14,COc1ccc2c(c1)C(=O)N1[C@H]3c4cc(OC)ccc4OC[C@@H]3[C@H](c3ccccc3)[C@]1(C)C(=O)N2,14.6%
15,COCCCNC(=O)c1cc2c(=O)n(C)c3ccccc3c2n1C,-8.02%
16,Cc1cc(O)c(C(=O)Cc2csc(C)n2)c(O)c1,-1.71%
17,O=C(COC(=O)/C=C/c1ccc(Cl)cc1Cl)NCCC1=CCCCC1,8.02%
18,CC(C)(C)C(=O)Nc1cccc2[nH]ncc12,3.91%
19,O=C(c1c[nH]c(C(=O)C(Cl)(Cl)Cl)c1)c1ccccc1Br,14.5%
20,C=CCSc1ncccc1C(=O)O,10.5%

row,SMILES,"hERG current change (%, negative = inhibition) at 1uM"
1,CCCN(CCC)CCCNC(=O)c1cc2c(-c3ccc(OC)c(OC)c3)nn(C)c2s1,5.71%
2,CCOC(=O)C1=C(C)N(CC(C)C)C(=O)C1,14.5%
3,Cc1ccc(S(=O)(=O)Cn2nnnc2C(CC(C)C)N2CCN(C3CCCC3)CC2)cc1.Cl (centres unmarked),6.31%
4,CCC(=O)NC(Nc1sc2c(c1C(=O)OC)CCCC2)(C(F)(F)F)C(F)(F)F,11.5%
5,COc1ccc(NC(=O)CN2C(=O)COc3ccccc32)cc1OC,21.9%
6,CSc1nc(Cl)cc(=O)[nH]1,11.4%
7,Cc1cc(NC(=O)c2cc(-c3ccc(C)c(C)c3)nc3ccccc23)no1,9.42%
8,CN(c1ccccc1C(=O)Nc1cccnc1)S(C)(=O)=O,4.33%
9,COc1ccc(-c2noc(C3CCCN(C(=O)Nc4ccccc4)C3)n2)cc1 (centres unmarked),4.05%
10,CCCOc1ccc(C(=O)Nc2c[nH]c(=O)[nH]c2=O)cc1,-1.98%
11,O=C(O)/C=C/c1cnc2ccccc2c1,10.1%
12,CCCc1c(O)nc(SCCN(CC)CC)n(C(=O)c2ccccc2)c1=O.Cl,-23.1%
13,Cc1cccc(NC2=NCC(=O)N2Cc2ccccc2)c1,16.3%
14,Cc1ccc(SCC(=O)NCc2ccc(F)cc2)cc1,5.31%
15,CCOC(=O)c1ccc(-c2ccc3[nH]c4ccccc4c(=O)c3c2)cc1F,11.1%
16,CC(=O)Oc1c(Sc2ccccc2[N+](=O)[O-])c(C)nn1C(C)(C)C,-1.5%
17,Cc1ccccc1NC(=O)c1ccc(COc2ccc3c(C)cc(=O)oc3c2)cc1,13.8%
18,COc1ccc(F)c(C2C(C#N)=C(N)Oc3n[nH]c(C(C)(C)C)c32)c1 (centres unmarked),13.4%
19,COc1ccc(N2CCN(CCC(=O)c3ccc4ccccc4c3)CC2)cc1,11.4%
